Measured values: paper PMC6919601, “Identification of Plasmodium dipeptidyl aminopeptidase allosteric inhibitors by high throughput screening” (PLoS ONE, 2019)
Hit rate of the full screen: of about 110,000 compounds, about 230 (0.21%) showed an effect of 50% or more. Some of the results follow.

target: DPAP1 (Plasmodium falciparum, UniProt Q8IIJ9); experiment: primary screen, percent inhibition; read by cleavage of a fluorogenic dipeptide substrate; higher = more effect of the substance; parameters: species or system P. falciparum D10 trophozoite lysates; single well
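Further: 30 min substrate incubation versus DMSO and 10 µM JCP410 controls.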

DPAP1, sequence (Q8IIJ9 whole entry, looked up): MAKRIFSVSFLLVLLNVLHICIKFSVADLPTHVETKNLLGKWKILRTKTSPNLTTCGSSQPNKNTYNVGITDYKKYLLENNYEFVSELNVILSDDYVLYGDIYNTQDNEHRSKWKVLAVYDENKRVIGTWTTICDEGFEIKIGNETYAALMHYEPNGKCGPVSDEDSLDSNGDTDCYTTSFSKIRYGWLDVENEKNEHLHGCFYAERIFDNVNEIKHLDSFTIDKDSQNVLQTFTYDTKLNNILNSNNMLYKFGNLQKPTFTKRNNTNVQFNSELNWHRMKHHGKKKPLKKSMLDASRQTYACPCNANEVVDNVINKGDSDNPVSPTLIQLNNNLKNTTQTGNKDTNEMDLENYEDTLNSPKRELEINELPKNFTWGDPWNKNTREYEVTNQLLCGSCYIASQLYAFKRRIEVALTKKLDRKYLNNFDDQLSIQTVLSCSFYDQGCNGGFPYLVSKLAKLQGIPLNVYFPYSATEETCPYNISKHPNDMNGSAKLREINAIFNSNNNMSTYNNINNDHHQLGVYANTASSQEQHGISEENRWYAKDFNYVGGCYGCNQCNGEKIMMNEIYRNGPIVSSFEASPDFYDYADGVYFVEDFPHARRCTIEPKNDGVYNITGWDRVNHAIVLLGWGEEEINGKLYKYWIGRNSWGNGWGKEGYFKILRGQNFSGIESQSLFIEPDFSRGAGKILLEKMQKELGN

Row | SMILES | % Inhibition @ 10 uM
1 | NC(=O)C1CCN(C(=O)C(=O)c2c[nH]c3ccccc23)CC1 | -6.38%
2 | CC(C)Cn1c(=O)c2ccccc2n2c(CCC(=O)N3CCN(C4CCCCC4)CC3)nnc12 | 4.16%
3 | Cc1ccc(C(=O)N2CCN(c3ccc(NC(=O)C(C)(C)C)cc3)CC2)cc1 | -6.48%
4 | Cc1cc(NC(=O)CSc2nc(-c3cccs3)cc(C(F)(F)F)n2)no1 | 1.39%
5 | Cc1ccc(CNC(=O)c2ccc(C)o2)cc1 | 0.843%
6 | CN(C)CC(O)COc1ccccc1 (centres unmarked) | -3.65%
7 | COc1cccc(-c2cc(C(F)(F)F)nc(N3CCC(C)CC3)n2)c1 | -1.31%
8 | CC(=O)Nc1ccc(NC(=O)c2ccc(-c3ccc(Cl)c(Cl)c3)o2)cc1 | -4.7%
9 | CCOC(=O)C1CCN(Cc2ccc(F)cc2F)CC1 | -5.57%
10 | CC1C(=O)CCC1(C(=O)O)c1ccccc1 (centres unmarked) | 5.73%
11 | O=C(CCCNS(=O)(=O)c1cccs1)NCc1ccccc1 | -1.31%
12 | Cc1ccccc1Cn1c(CN(C)Cc2ccccc2)nc2c1c(=O)n(C)c(=O)n2C | -0.499%
13 | O=C(/C=C/c1ccc(Cl)cc1)Nc1nccs1 | 18%
14 | CSc1[nH]nc(N)c1S(=O)(=O)c1ccccc1 | -6.08%
15 | COc1ccc(C2=NN(S(C)(=O)=O)C(c3ccco3)C2)cc1 (centres unmarked) | 2.6%
16 | CCOc1ccc2nc(SCc3c(Cl)cccc3Cl)sc2c1 | -7.54%
17 | O=S(=O)(O)c1ccc(O)c2ncccc12 | 1.7%
18 | CCOC(=O)C1=C(c2ccccc2)N(C)C(=O)NC1c1ccc(O)c(OC)c1 (centres unmarked) | 1.13%
19 | CC(CCc1ccccc1)NCCN1CCCCC1 (centres unmarked) | -5.44%
20 | O=C(NCCN1CCOCC1)C1CC(c2ccc(F)cc2)=NO1 (centres unmarked) | -0.431%
21 | C=C(CS(=O)(=O)c1ccc(C)cc1)C(=O)Nc1ccccc1 | 0.661%
22 | CN1C2CCC1CC(N1CCN(Cc3ccccc3)CC1)C2 (centres unmarked) | -1.5%
23 | CCOC(=O)N1C2C3C4C5C3C(C5C42)N1C(=O)OCC (centres unmarked) | -5.31%
24 | CN1CCC/C1=N/c1cc(N(C)C)nc2ccccc12 | -1.1%
25 | CC(C)(Oc1ccc(Cl)cc1)C(=O)NCc1nc(-c2ccccc2)no1 | -6.72%
26 | Cc1cc(C)c(Cn2c(C)c(CNCCc3ccccc3)c(C(=O)O)c2C)c(C)c1 | -0.23%

Row | SMILES | % Inhibition @ 10 uM
27 | CC(=O)N1CCC(NCc2ccco2)CC1 | 4.9%
28 | Fc1ccc(SCCc2ccncc2)cc1 | 0.0345%
29 | COc1ccccc1C1NC(C(=O)O)Cc2c1[nH]c1ccccc21 (centres unmarked) | -0.341%
30 | COc1ccc(CCN(Cc2nc(-c3ccccc3)no2)Cc2nc(-c3ccccc3)no2)cc1OC | -0.0626%
31 | CCOc1ccc(CCNC(=O)CCCN2C(=O)CSc3nc(C)cc(C)c32)cc1OCC | -0.637%
32 | O=C(Nc1ccc(F)cc1F)c1cc2ccccc2oc1=O | 6.8%
33 | CCCCC1CC1C(=O)Nc1ncc2c(n1)CC(C)(C)CC2=O (centres unmarked) | -0.687%
34 | COc1cccc2c1OC1(C=C2)c2ccccc2-c2ccccc2N1C (centres unmarked) | 5.46%
35 | O=C(Nc1cc(Cl)cc(Cl)c1)c1ccc(Cl)cc1 | 6.41%
36 | CCC(Oc1ccccc1)C(=O)N1CCN(C(=O)C(CC)Oc2ccccc2)CC1 (centres unmarked) | -1.88%
37 | O=C(O)CCC(=O)N1Cc2ccccc2Oc2ncccc21 | -3.53%
38 | CC1CCc2c(sc3nnn(CCCCN4C(=O)c5ccccc5C4=O)c(=O)c23)C1 (centres unmarked) | 2.41%
39 | NC(=O)c1cc(S(=O)(=O)N2CCN(c3ccccn3)CC2)cs1 | -6.86%
40 | CCOC(=S)/N=C(\NS(=O)(=O)c1ccc(C)cc1)c1ccccc1 | 15.7%
41 | CCOC(=O)N1CCN(C(=O)c2ccc(CS(=O)(=O)c3ccccc3C)o2)CC1 | 3.77%
42 | O=C(COc1ccc(Br)cc1Cl)Nc1ccc(S(=O)(=O)N2CCCCC2)cc1 | 1.52%
43 | CSc1nc(N)nc(SC/C=C/c2ccccc2)c1C#N | -0.132%
44 | COC(=O)[C@@]1(C)CC[C@]2(C)CC[C@]3(C)C(=CC(=O)C4[C@@]5(C)CCC(=O)C(C)(C)C5CC[C@]43C)C2C1 (some centres unmarked) | 3.76%
45 | Cc1ccc2nc(NC(=O)C3CCN(S(=O)(=O)c4c(C)noc4C)CC3)sc2c1 | -3.28%
46 | CCOC(=O)c1cc2c(=O)n3ccccc3nc2n(C)/c1=N\C(=O)c1ccc2c(c1)OCO2 | 9.37%
47 | Cc1onc(-c2ccccc2Cl)c1C(=O)Nc1ccccc1F | -12.1%
48 | CC(C)CCSc1nc2c(c(=O)[nH]c(=O)n2C)n1C(C)C | -0.941%
49 | CCN(CC)c1nc(Cl)nc(N2CCOCC2)n1 | -0.712%
50 | CCOCCCNc1nc2c(S(=O)(=O)c3ccc(CC)cc3)nnn2c2ccccc12 | -1.37%
51 | Cc1ccc(NC(=O)c2ccc(-c3ccccc3)cc2)nc1 | -2.27%
52 | CCCn1c2ccccc2c2cnn(CC(=O)Nc3cc(-c4cccc(F)c4)no3)c(=O)c21 | -2.96%

Row | SMILES | % Inhibition @ 10 uM
53 | COc1ccc(-c2c3c(nc4sc(C(=O)NCC5CCCO5)c(N)c24)CC(C)(C)CC3=O)cc1 (centres unmarked) | -5.74%
54 | CCOc1ccc(-c2ccc(OCC)nc2)cn1 | -6.41%
55 | OC(/C=C/c1ccccc1)(Cn1ccnc1)c1ccncc1 (centres unmarked) | 1.08%
56 | Cc1[nH]nc(O)c1C(c1ccc(-c2ccccc2C(=O)O)o1)c1c(O)n[nH]c1C | -2.14%
57 | CN(C)c1cc[n+](Cc2c(Cl)cccc2Cl)cc1 | -6.34%
58 | Cc1cc(OCC(=O)N(C)C2CCCCC2)cc(C)c1Cl | -0.351%
59 | CN(c1cccc(NC(=O)c2ccc(Cl)cc2)c1)S(C)(=O)=O | 0.873%
60 | CC(=O)Nc1ccc(C2C(C#N)=C(N)Oc3cc(N(C)C)ccc32)cc1 (centres unmarked) | -5.94%
61 | COc1ccc2c(CNCCC3=CCCCC3)c(C(=O)O)n(Cc3ccc(F)cc3)c2c1 | -1.53%
62 | CC1CC2=C(CC1C1OCC(CN3CCCCC3)O1)C(C)(C)CCC2 (centres unmarked) | -1.91%
63 | CCc1ccc(-c2[nH]nc3nc(-c4ccc(OC)c(OC)c4OC)cc(C(=O)O)c23)cc1 | 0.526%
64 | CCN(CC)CCCCOc1cccc(Cl)c1 | 3%
65 | COc1ccc(OC)c(S(=O)(=O)N2CCCC2C(=O)NCCOc2ccccc2)c1 (centres unmarked) | 2.77%
66 | Cc1nc(CNS(=O)(=O)c2cccnc2)cs1 | 0.953%
67 | COc1ccc(-c2nc3sccn3c2C=O)cc1 | -0.703%
68 | CC(Sc1nc(-c2ccccc2)cc(C(F)(F)F)n1)C(=O)NCc1ccncc1 (centres unmarked) | 3.04%
69 | Cc1ccc(S(=O)(=O)Nc2sc3c(c2C(N)=O)CCC3)cc1C | 2.09%
70 | CC(=O)Nc1ccc(N2C(=O)CC(NCCc3cccc(Cl)c3)C2=O)cc1 (centres unmarked) | -3.01%
71 | O=C1NC(c2cccc(Oc3ccccc3)c2)Nc2ccccc21 (centres unmarked) | -5.06%
72 | COc1cc(/C=N/c2oc(C)c(C)c2C#N)cc(Br)c1O | 1.76%
73 | Cc1cccc(C)c1NC(=O)CC1SC(NC2CCCCC2)=NC1=O (centres unmarked) | 2.92%
74 | CCOC(=O)c1sc(N(Cc2nc(-c3cccc(C)c3)oc2C)C(C)=O)c(C#N)c1C | 4.84%
75 | CO/C(O)=C1\C(C)=NC2=C(C(=O)c3ccccc32)C1c1ccc(Br)o1 (centres unmarked) | -3.14%
76 | CC(c1ccccc1)c1nnc(NC(=O)C2CCCCC2)s1 (centres unmarked) | 4.86%
77 | CC(Oc1ccccc1)C(=O)NCc1nc(-c2ccccc2)no1 (centres unmarked) | -6.72%
78 | CC1CC(=O)NN=C1c1ccc(N)c([N+](=O)[O-])c1 (centres unmarked) | 3.58%

Row | SMILES | % Inhibition @ 10 uM
79 | COc1ccc(OC)c(-n2c(SCC(=O)N3CCCCCC3)nnc2-c2c[nH]c3ccccc23)c1 | 2.12%
80 | C=CCOc1ccccc1CN1CCC(C(N)=O)CC1 | -7.17%
81 | Cc1cccc2c3c([nH]c12)CCN(C)C3 | 0.726%
82 | CCOC(=O)c1cn2ncc(C(=O)OCC)c2nc1C | -2.83%
83 | Cc1cccc(-n2ncc3c(NCCCN(C)C)ncnc32)c1 | 5.23%
84 | COc1cc(C(=O)Nc2nc(-c3ccc(Cl)cc3)cs2)cc(OC)c1OC | 5.24%
85 | CC(=O)N1CCN(Cc2cccc(Cl)c2Cl)CC1 | -0.446%
86 | CC1CCCN(C(=O)Cn2cc(S(=O)(=O)N3CCCC3)c(S(=O)(=O)N3CCCC3)c2)C1 (centres unmarked) | 5.66%
87 | O=C1COc2ccccc2N1Cc1ccccc1 | 2.23%
88 | Cc1nc2c(c(C)c1CCC(=O)NC(C)CCc1ccco1)c(=O)n(C)c(=O)n2C (centres unmarked) | -8.91%
89 | Cc1ccc(CNC(=O)COc2ccc(Br)c(C)c2)cc1 | 1.83%
90 | Cc1cccc(N2C(=O)c3ccc(C(=O)OC(C)C)cc3C2=O)c1 | 2.7%
91 | CN1C2=C(C(=O)CCC2)C(c2cc(Cl)ccc2OCC(=O)O)C2=C1CCCC2=O | -4.16%
92 | Cc1ccc2nc(O)nc(-c3ccccc3)c2c1 | -10.2%
93 | Cc1ccccc1C(=O)Nc1sc2c(c1C(=O)N1CCOCC1)CCC(C(C)(C)C)C2 (centres unmarked) | -1.4%
94 | COc1ccc(-c2ccc(CCC(=O)O)n2Cc2ccco2)cc1 | 0.812%
95 | COCCNC(=O)C1CCCCN1S(=O)(=O)c1ccc(F)cc1 (centres unmarked) | 0.414%
96 | COc1ccc(C2CC(=O)c3sc(N)nc3C2)cc1 (centres unmarked) | 2.69%
97 | COc1ccc(C(=O)O)cc1COc1ccc(Br)cc1 | 5.87%
98 | CCc1ccccc1NC(=O)c1cccc(OC)c1 | -4.59%
99 | CCOc1ccc(C(=O)NCC23CC4CC(C2)CC(CNC(=O)c2ccc(OCC)cc2)(C4)C3)cc1 | -0.703%
100 | CC1C(c2cccs2)=[N+]([O-])C(C)(c2ccc(Cl)cc2)N1O (centres unmarked) | 5.05%
101 | CCOC(=O)N1CCN(C2CCN(CC)CC2)CC1 | -0.603%
